Common to all, as to assay: Primary Screen for Target Class Profiling of Small Molecule Inhibitors of Methyltransferases
Assay [1] deals with Glycine N-methyltransferase (Homo sapiens) (UniProt Q14749). Particulars: purified enzyme, MTase-Glo SAH luminescence; measured here: GNMT inhibition; at 40 µM; stronger effect = lower value. The method, boiled down: (§1)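 Each enzyme was reacted with SAM and its substrate, with compounds tested once at 40 uM; SAH formed was read by MTase-Glo luminescence.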
The target in assay [2] is Guanidinoacetate N-methyltransferase (Homo sapiens) (UniProt Q14353). Particulars: purified enzyme, MTase-Glo SAH luminescence; measured here: GAMT inhibition; at 40 µM; stronger effect = lower value. An outline of the steps: as §1
Assay [3] concerns the target Histamine N-methyltransferase (Homo sapiens) (UniProt P50135). The note with it: purified enzyme, MTase-Glo SAH luminescence; measured here: HNMT inhibition; at 40 µM; stronger effect = lower value. The method, boiled down:
as §1

The target of assay [4] is Nicotinamide N-methyltransferase (Homo sapiens) (UniProt P40261). Particulars: purified enzyme, MTase-Glo SAH luminescence; measured here: NNMT inhibition; at 40 µM; stronger effect = lower value. The method, boiled down:
as §1

Assay [5] deals with Phenylethanolamine N-methyltransferase (Homo sapiens) (UniProt P11086). Particulars: purified enzyme, MTase-Glo SAH luminescence; measured here: PNMT inhibition; at 40 µM; stronger effect = lower value. The method, boiled down:
as §1

SMILES strings stand for the structures. Some of the results follow. Further columns of the screen follow, without active or inactive calls.
On the % scale 0 is the no-effect control and ±100 the full control effect.

Take `CCc1ccccc1NC(=O)CSc1nnc2n(CC(C)C)c(=O)c3ccccc3n12`: the activity change, negative = inhibition in assay [1] was -9.81%; in assay [2], -5.15%; in assay [3], 1.86%; in assay [4], -10.7%; in assay [5], -8.32%.

As to `N#Cc1cccnc1-c1ccc(C(=O)N2CCC(N[S+](=O)([O-])c3cccc(C(F)(F)F)c3)CC2)cc1`, the activity change, negative = inhibition in assay [1] is -5.33%; in assay [2], 0.252%; in assay [3] it was -0.148%; in assay [4] it was -10.7%; in assay [5], -3.7%.

As to `COc1cccc(CCC(=O)NC2CCc3nn(CC4CC4)c(=O)n3CC2)c1` (stereo not given), the activity change, negative = inhibition in assay [1] is -3.63%; in assay [2] it was -3.26%; in assay [3], -0.86%; in assay [4], -8.02%; in assay [5], -0.191%.

As for `CCCn1c(=O)c2ccc(C(=O)NC(C)C)cc2n2c(=O)n(C)nc12`, the activity change, negative = inhibition in assay [1] stood at 3.89%; in assay [2] it was 0.743%; in assay [3], 8.05%; in assay [4], 4.44%; in assay [5] it was 7.64%.

As for `Cc1ccc(Cn2c(=O)c3ccc(C(=O)NC4CCCCC4)cc3n3c(=O)n(C)nc23)cc1`, the activity change, negative = inhibition in assay [1] stood at 4.63%; in assay [2], 0.247%; in assay [3] it was 6.88%; in assay [4] it was 5.76%; in assay [5] it was 3.44%.

For the compound `O=C(NC[C@H]1O[C@@H](CO)[C@@H](O)[C@H]1N1CCOCC1)c1cccc(F)c1`, the activity change, negative = inhibition in assay [1] was found to be 0.592%; in assay [2] it was 1.86%; in assay [3], 2.33%; in assay [4], 1.06%; in assay [5] it was 10.5%.

For `CN(CCCN1C(=O)c2cc3occc3n2CC1(C)C(=O)NC1CCCCC1)Cc1ccccc1` (stereo not given), the activity change, negative = inhibition in assay [1] was 7.75%; in assay [2] it was 2.18%; in assay [3], -2.89%; in assay [4], 9.94%; in assay [5], 4.75%.

As to `CC(C)CCn1c(=O)c2ccccc2n2c(=O)n(CC(=O)Nc3ccc(F)cc3)nc12`, the activity change, negative = inhibition is 1.73% in assay [1]; 0% in assay [2]; 1.82% in assay [3]; -6.89% in assay [4]; 3.48% in assay [5].

Regarding `COc1ccc(Cl)cc1C(=O)N(C)C1CCc2nn(C)c(=O)n2CC1` (stereo not given), the activity change, negative = inhibition is -1.51% in assay [1]; -3.42% in assay [2]; 1.76% in assay [3]; -3.76% in assay [4]; -17.8% in assay [5].

For the compound `C[C@@H]1CCC/C=C/[C@H]2CC(=O)C[C@@H]2[C@@H](O)/C=C/C(=O)O1`, the activity change, negative = inhibition in assay [1] is -0.642%; in assay [2] it was -3.74%; in assay [3], 6.26%; in assay [4] it was -42.7%; in assay [5], 1.95%.

As for `CC1CCCCC1NC(=O)C1(C)Cn2c(nc3ccccc32)C(=O)N1Cc1ccc2c(c1)OCO2` (stereo not given), the activity change, negative = inhibition in assay [1] was 5.25%; in assay [2], 0%; in assay [3], 9.25%; in assay [4], 11.1%; in assay [5], 3.34%.

For `COc1cccc(-c2ccc(C(=O)NCCNC(=O)C3CCCC3)cc2)c1`, the activity change, negative = inhibition is -8.91% in assay [1]; -10.8% in assay [2]; -5.46% in assay [3]; -17.5% in assay [4]; -11.9% in assay [5].

In the case of `CNC(=O)N1CCC(C2CCN(C(=O)CCc3ccccc3OC)C2)CC1` (stereo not given), the activity change, negative = inhibition in assay [1] was -4.3%; in assay [2], -12.1%; in assay [3], -1.69%; in assay [4], -7.36%; in assay [5] it was -3.8%.

Consider `Cc1cccc(N2CCN(C(=O)c3ccc4c(=O)[nH]c5c(C(=O)NC6CCCC6)sc(=S)n5c4c3)CC2)c1C`, for which the activity change, negative = inhibition in assay [1] is -3.74%; in assay [2], 4.77%; in assay [3] it was -9.35%; in assay [4] it was -9.87%; in assay [5], -0.939%.

With `Cc1ccc(N2C(=O)c3cc(-c4ccco4)nn3CC2(C)C(=O)NC2CCCCCC2)cc1Cl` (stereo not given), the activity change, negative = inhibition is -1.88% in assay [1]; 4.31% in assay [2]; 3.8% in assay [3]; -9.01% in assay [4]; -0.666% in assay [5].

On to `CCOc1ccc(C(=O)Cn2nc3n(C(C)C)c(=O)c4ccc(C(=O)NCC(C)C)cc4n3c2=O)cc1`, for which the activity change, negative = inhibition in assay [1] is 3.91%; in assay [2], 0%; in assay [3], 9.73%; in assay [4], -4.14%; in assay [5] it was 1.47%.

The values above are taken from PubChem BioAssay AID1745853 (National Center for Advancing Translational Sciences (NCATS), 2022).
